Measured values from PubChem BioAssay AID1508642 (National Center for Advancing Translational Sciences (NCATS), 2021).
The campaign covered roughly 43,000 compounds. About 200 (0.47%) were called active. Not shown: some 12% with an inconclusive outcome. Calls come from the whole dose curve; as a rule, active = well fitted cell-killing curve with a large enough effect; inconclusive = small, poorly fitted or top-dose-only effect, or effect the other way; inactive = flat fitted curve, though single readings scatter. The list shows a part of the results.

Assay: Cell viability qHTS assay in S16 Pmp22-F2sN cells; note: nearly all actives have a fitted effect of over 65% in size
Settings: S16 Pmp22-F2sN Schwann cells viability, CellTiter-Glo, 24 h; series mostly up to 57.5 µM; activity change, negative = cytotoxicity: at the top concentration
In short: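 Viability was measured by CellTiter-Glo luminescence (15 min, room temperature). This followed 24 h at 37 °C of compound exposure (23 nL pin transfer) in S16 Pmp22-F2sN Schwann cells, 500-1,000 per well.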
% is set by controls: 0 for no effect and ±100 for the full control effect.

Row | Compound | activity change, negative = cytotoxicity
1 | COc1ccc(CCNC(=O)CSc2nnnn2-c2cccc(C(C)=O)c2)cc1OC | inactive: 1.32%
2 | O=C(C1CC1)N1CCN(c2nc3c(Cl)cccc3s2)CC1 | inactive: -6.84%
3 | Fc1ccc(Cc2cn3cc(-c4ccccc4)nc3s2)cc1 | inactive: 14.7%
4 | CCOC(=O)c1ccc(NC(=O)c2csnn2)cc1 | inactive: 0.119%
5 | CCOC(=O)c1cccc(NC(=O)CCC(=O)N2CC(C)Oc3ccc(C)cc32)c1 (configuration not stated) | inactive: -5.73%
6 | Cc1ccccc1-c1noc(-c2cccnc2N(C)Cc2ccc(Cl)cc2)n1 | inactive: 1.65%
7 | O=C(Cn1c(=O)nc(-c2ccccc2)c2ccccc21)NCc1ccc(F)cc1 | inactive: 7.44%
8 | Cc1cccc(NC2=CC(c3cccc(Br)c3)N(c3cccc(C)c3)C2=O)c1 (configuration not stated) | inactive: 2.57%
9 | CCOC(=O)c1c(C)[nH]c(C)c1S(=O)(=O)NCC(=O)N1CCN(c2cccc(C)c2)C(C)C1 (configuration not stated) | inactive: 1.17%
10 | Cc1cc(O)c(C(c2ccccc2)N2CCN(C)CC2)c(=O)n1Cc1ccco1 (configuration not stated) | inactive: 13.6%
11 | O=C(Nc1ccccc1)N(Cc1ccc(F)cc1)c1ccccn1 | inactive: 11.9%
12 | C=Cc1ccc(CN2C(=O)c3ccccc3Sc3ccc(C(=O)OCc4ccco4)cc32)cc1 | inactive: 9.73%
13 | COc1ccc(-c2noc(CN(C(C)C)S(=O)(=O)c3ccc(Br)cc3)n2)cc1 | inactive: 2.23%
14 | CC1=C(C(=O)N2CCN(c3cccc(C)c3C)CC2)C2(CCCCC2)OC1=O | inactive: -0.331%
15 | Cc1ccc2c(c1)c1c(c(=O)n(Cc3ccccc3)c(=O)n1CC(=O)NCc1ccccc1Cl)n2C | inactive: -0.14%
16 | O=S(=O)(c1ccc2c(c1)CCN2)N1CCCCCC1 | inactive: -14%
17 | CCC(C)OC(=O)/C(C#N)=C\c1ccc(-c2cccc(C(F)(F)F)c2)o1 (configuration not stated) | inactive: -3.93%
18 | Cc1cccc(C)c1Nc1nc2ccccc2nc1NS(=O)(=O)c1ccccc1 | inactive: -4.07%
19 | CCc1ccc(NCc2cc3cc(OC)c(OC)cc3n(CC(=O)Nc3cc(C)ccc3C)c2=O)cc1 | inactive: 8.45%
20 | CN(C(=O)CN1C(=O)CCSc2ccc(S(=O)(=O)N3CCCC3)cc21)c1ccccc1 | inactive: 12.8%
21 | COc1ccc(-c2noc(CSc3nnc(-c4ccncc4)n3-c3ccc(C)cc3)n2)cc1 | inactive: -23%

Row | Compound | activity change, negative = cytotoxicity
22 | CCc1ccc(Sc2cc(C(=O)NC(C)CC)c3ccccc3n2)cc1 (configuration not stated) | inactive: -6.04%
23 | COc1cccc(NC(=O)c2cnn(-c3ccccc3)c2-n2cccc2)c1 | inactive: 7.37%
24 | CCOc1ccc(OCC(=O)Nc2nnc3n2CCS3)cc1 | inactive: 7.93%
25 | COc1ccccc1-n1c(/C=C/c2c(C)n(C)c3ccccc23)nc2ccccc2c1=O | inactive: 5.17%
26 | CCOC(=O)C(Cc1c[nH]c2ccccc12)NC(=O)COc1ccc(Cl)c(C)c1 (configuration not stated) | inactive: 2.98%
27 | COc1cccc(CNC(=O)C2CCC(CNS(=O)(=O)c3ccc(Br)s3)CC2)c1 (configuration not stated) | inactive: -1.95%
28 | CCOc1nc(NC(=O)NS(=O)(=O)Oc2ccccc2)nc(-c2ccccc2)n1 | inactive: 1.61%
29 | CCOc1ccc(Sc2cc(C(=O)NCCc3ccccc3)c3ccccc3n2)cc1 | inactive: 0.653%
30 | COc1ccccc1CNc1ccc(-c2nc(-c3ccncc3)no2)cc1[N+](=O)[O-] | inactive: 5.05%
31 | COc1ccc(CNC(=O)CC(c2ccc(OC)c(OC)c2)N2Cc3ccccc3C2=O)cc1 (configuration not stated) | inactive: 3.52%
32 | CCOc1ccc(NC(=O)CSC2=Nc3ccccc3C3=NC(CC(=O)NCc4ccco4)C(=O)N23)cc1 (configuration not stated) | inactive: 6.67%
33 | Cc1cc2ccccc2n1CCNC(=O)c1cccc(Cl)c1 | inactive: 13.7%
34 | CCOC(=O)c1sc2ncn(CC(=O)Nc3ccc(C)cc3Br)c(=O)c2c1C | inactive: -0.795%
35 | Cc1ccc(N(CC(=O)Nc2ccc(C)c(F)c2)S(=O)(=O)c2c(C)n[nH]c2C)cc1 | inactive: -2.99%
36 | COc1ccc(C)cc1NC(=O)Cn1c(=O)ccc2cc(S(=O)(=O)N3CCCC3)ccc21 | inactive: 2.94%
37 | CSc1cccc(NC(=O)N2CCN(c3cc(-c4noc(C)n4)ccc3C)CC2)c1 | inactive: 1.1%
38 | CCOc1ccc(NC(=O)CSc2cn(CC(=O)N3CCCCCC3)c3ccccc23)cc1 | inactive: -0.741%
39 | CCOC(=O)c1c(C)[nH]c(C)c1S(=O)(=O)N1CCCC(C(=O)Nc2ccc(F)cc2F)C1 (configuration not stated) | inactive: 16.8%
40 | O=C(NC1CCCCCC1)c1ccc2c(c1)sc1nc(-c3ccccc3)cn12 | inactive: 5.5%
41 | COc1cc(C2CC(=O)N(c3ccccc3)C3=C2C(=O)OC3)cc(OC)c1OC (configuration not stated) | inactive: -0.932%
42 | CCN1CCN(c2ncnc3c2cnn3-c2ccc(C)cc2)CC1 | inactive: 6.17%

Row | Compound | activity change, negative = cytotoxicity
43 | C=C(C)CSc1nc2sc3c(c2c(=O)n1-c1ccccc1)CCC(C)C3 (configuration not stated) | inactive: 6.95%
44 | CCc1cccc2c(-c3ccc(F)cc3)nc(SCC(=O)Nc3ccccc3)nc12 | inactive: 8.49%
45 | COc1ccc(C(=O)Nc2ccc(-c3cc4ccccc4oc3=O)c(C)c2)cc1OC | inactive: -2.84%
46 | COc1ccc(CCNC(=O)c2ccc(CS(=O)(=O)Cc3cccc(C)c3)o2)cc1OC | inactive: -8.88%
47 | CCN1CCN(C(c2ccc(F)cc2)c2c(O)cc(C)n(CCOC)c2=O)CC1 (configuration not stated) | inactive: 6.2%
48 | CCc1ccc(OCCCn2c(-c3ccc(Cl)cc3)nc3ccccc3c2=O)cc1 | inactive: -0.707%
49 | Cc1ccc(-c2nc3scc(CCNS(=O)(=O)c4ccc(F)c(C)c4)n3n2)cc1 | inactive: -1.96%
50 | CCOc1cccc(CC(=O)N2CCc3c([nH]c4ccccc34)C2c2ccccc2)c1OCC (configuration not stated) | inactive: -17.2%
51 | CCC1CCCCN1CCCNC(=O)c1ccc2c(c1)N(Cc1ccccc1)C(=O)c1ccccc1S2(=O)=O (configuration not stated) | inactive: -17.1%
52 | CCn1nc(C)c2c(-c3ccccc3)cc(=O)n(C(C)C(=O)NCc3cccc(OC)c3)c21 (configuration not stated) | inactive: 9.57%
53 | CCN(CC)c1ccc(CN(C(=O)Cc2coc3ccc(C)cc23)C2CCS(=O)(=O)C2)cc1 (configuration not stated) | inactive: -8.95%
54 | COc1ccc(C(=O)Nc2cc(C(C)C)c(O)c(S(=O)(=O)c3ccc(Cl)cc3)c2C)cc1 | inactive: -6.57%
55 | CCOc1ccccc1CNCc1c(C(=O)O)c(C)n(Cc2ccc(Cl)cc2)c1C | inactive: -21.5%
56 | CCN(Cc1ccccc1)Cc1c(O)ccc2c(=O)c(-c3ccccc3)c(C(F)(F)F)oc12 | inactive: 2.59%
57 | Cc1ccc(Cl)cc1NC(=O)CSc1ccc(C(=O)O)cn1 | inactive: 0.715%
58 | CCN(CC)c1ccc(NC(=O)c2cc(C)nc3c2c(C)nn3-c2cccc(F)c2)c(C)c1 | inactive: 7.5%
59 | c1ccc(-c2nnc(CN3CCN(c4ccccn4)CC3)o2)cc1 | inactive: 4.4%
60 | Cc1ccc(OCC(=O)OCc2cc(=O)n3nc(C4CCCCC4)sc3n2)cc1C | inactive: 2.45%
61 | O=C1CC(c2ccccc2)Sc2nc(-c3ccc(F)cc3)nn21 (configuration not stated) | inactive: 1.13%
62 | O=C(c1[nH]c2ccccc2c1Sc1ccc(Cl)cc1)N1CCCCC1 | inactive: 1.33%
